Among the data in the supplement of paper PMC10126150 are switch fluorescence ratio values, retold here.

Values marked as one replicate rest on one cluster of the flow cell; about a third of the high ones do not repeat.

For the series, the system named is ATP. The series is described as follows: switch fluorescence ratio, 500 uM ATP over buffer (Cy3 cluster intensity, sum of 5 cycles each) (fold (ratio)); higher = stronger signal-on switching upon ATP binding; sequences stand for … in TCGTCGGCAGCGTCAGATGTGTATAAGAGACAGTTTTTTTTTTTTTTTTTTTTTTTTT…TC. Particulars: aptamer strand: ATP DNA aptamer (quencher-CACCTGGGGGAGTATTGCGGAGGAAGG + anchor), 100 nM annealed; ATP concentration: 500 uM; one replicate. The procedure, abridged:
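After annealing to 100 nM quencher-labelled ATP aptamer, Cy3-labelled switching-strand clusters on a modified Illumina MiSeq flow-cell were imaged in selection buffer. A second image followed after 15 min with 500 uM ATP at 22 °C, and five such buffer/ATP cycles were done, each separated by NaOH stripping and re-annealing. The fluorescence ratio, averaged per switch-domain sequence, is summed target-cycle over summed buffer-cycle Cy3 intensity per cluster, with clusters outside 100-1000 RFU excluded.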
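Note: ATP exposure 15 min at 22 °C before imaging.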

Turning to TCTTAACGAA, the switch fluorescence ratio worked out at 0.991.
To TCGGCGTTAT belongs 0.958; to GTTCCGAGG, 1.23.
For TGCTTTGTCG, the switch fluorescence ratio is 1.02.
To GGTAGGAGT belongs 0.97.
The value for GCATGTGGTG was 0.997; that for TTTTCTAAGC was 1.03.
Take TTGTTAAGTA: the switch fluorescence ratio is 0.996.
For the sequence ATGTAAGTT, the switch fluorescence ratio is 0.958.
The value for GTTTTGTAGG was 0.977; that for TTCAATTAAT was 0.961.
The value for CACGGGAATG was 1.
To GGCGATTTAC belongs 1.05.
In the case of GCCGCATGCG, the switch fluorescence ratio turned out to be 1.04.
With AATCTTATGC, the switch fluorescence ratio came to 0.969.
AAAGATCGG: the switch fluorescence ratio is 1.02.
The value for ACGAAATGCG was 1.1; that for AATCACAAAC was 1.16; that for TTTTAATTAC was 0.968.
To ATTTGTCTTA belongs 0.958.
The value for AAATAATTAA was 1.04; that for GACGTGACCA was 1.3; that for AGTTAGGATT was 1.
For the sequence ATCGGACTGC, the switch fluorescence ratio came out at 1.24.
To CGTACTAGGG belongs 0.995.
To GAGCTCCTTT belongs 0.992.
To CGAAATATTG belongs 1.05; to CAGGAGATAT, 0.968.
For AGGCCGACTA, the switch fluorescence ratio amounted to 0.962.
The value for CGGTTGCAGT was 0.966; that for GCAGGTCCGT was 0.992; that for AATAGCTCAA was 1.01.
The value for TATCATGGG was 0.973.
The value for CAAGACTTAA was 1.03; that for AGCGTAGTCT was 1.05; that for TTTCGTAGGC was 1.02.
As for GATGGTACTT, the switch fluorescence ratio was determined as 1.06.
The value for CGCCTATTGG was 0.992.
The value for GCGGGGAGAG was 1.04; that for CCATACCCAT was 1.05.
For the sequence AATTGCCTTT, the switch fluorescence ratio came out at 0.979.
The value for GAGCGCCTTG was 0.998.
For TGAGTACCGT, the switch fluorescence ratio amounted to 1.
In the case of AGAAGAAGAG, the switch fluorescence ratio is 0.983.
To ATGCTGGTAC belongs 1.05; to CGCTAGAATG, 1.06.
To CCATGATCTG belongs 0.993; to GATTCCGGAT, 0.99; to TTCCGGTAGT, 1.05.
To ATGTGCTAAC belongs 0.961.
For GCAAGGTCCG, the switch fluorescence ratio is 1.1.
The value for ATCGGTAGCA was 1.03.
The value for CAATAGACAG was 0.979; that for TGGTGGTAAT was 0.933.
With TACCGCAGAA, the switch fluorescence ratio is 2.08.
Turning to TGTTGGGATA, the switch fluorescence ratio turned out to be 0.989.
To AACGAGCTTG belongs 0.938; to TTGGACTAAT, 0.931; to GGCTGGAGCC, 1.01.
As to TCGGGCATCT, the switch fluorescence ratio was found to be 0.969.
The value for GATAACACCT was 1.36; that for TAGGATGTTC was 1.01; that for AAAGCCCCGC was 1.01.
To GAGCACACGA belongs 1.16.
The value for CTTCGTGAA was 1.08.
ATCGTTCTCG: the switch fluorescence ratio worked out at 1.02.
TATTAAGGGG: the switch fluorescence ratio was 1.03.
TCGAAGATCG: the switch fluorescence ratio worked out at 1.02.
To CCTGTAATCA belongs 1.02.
The value for GATAATGAAA was 1.02; that for AACCAGCATA was 1.16.
As for CATGGCCATT, the switch fluorescence ratio stood at 0.962.
The value for AAGACTCTAC was 1.23.
The value for GATGAATGCC was 0.967.
To ACTACAGTAT belongs 1.02; to ACTTATGTAT, 1.04.
For the sequence TATAGCTGTG, the switch fluorescence ratio amounted to 0.997.
To TAGTAGACTA belongs 1; to CTAGATCGGG, 1.01.
In the case of TTCTATCAGT, the switch fluorescence ratio was 0.997.
To ATGAGAGGTC belongs 1.02; to ACAGCCGACG, 1.21.
To TTGAGAGCAC belongs 1.01; to CCTTCGATA, 3.36.
On to CTGGGATGGA, for which the switch fluorescence ratio amounted to 1.01.
The value for CCAGTGCTCC was 1.96; that for TAGAAGCCAG was 1.02.
The value for CTGAGACAGG was 1.06.
To GAGGTATAT belongs 0.999; to TAAAGTCCTT, 0.95; to CTAACTGAAG, 1.04.
For the sequence GACGCCACG, the switch fluorescence ratio was found to be 1.06.
To CGGTACGTTC belongs 0.956; to CAAATGTAAA, 1.
To TGACCAATAT belongs 1.57.
To ACTCTGATCC belongs 1.06.
CGTGTGAAGA: the switch fluorescence ratio was 1.04.
On to CGATGGCCTG, for which the switch fluorescence ratio came out at 1.03.
To ACACCTTCCC belongs 3.01; to CGGGCCTGGG, 1.01.
The value for AAGACGAGTA was 0.876; that for CAGGCTCGCC was 0.984; that for AGGGTGCCCA was 0.938.
With GAAGGGCTTG, the switch fluorescence ratio turned out to be 0.991.
As to TTAGGCAGAG, the switch fluorescence ratio was determined as 1.08.
The value for CCAGTGCAGG was 1.16; that for GATCTTACTT was 0.997.
To TGCTGAATAT belongs 0.996.
To TGCTCTGGAA belongs 2.44.
Regarding ATCCATACG, the switch fluorescence ratio is 1.02.
To ATCGTCCGAA belongs 1.07.
Turning to ATCGGGAC, the switch fluorescence ratio was 0.982.
As for TTGCCGGATT, the switch fluorescence ratio stood at 1.04.
On to CGAAGTCTGG, for which the switch fluorescence ratio is 1.03.
With ACACCCCGAT, the switch fluorescence ratio turned out to be 1.2.
To AACGTGGTCG belongs 1.02.
The value for GTGTATGGGT was 0.993; that for CTTTTAGTCG was 0.993.
The value for GCCGGTCCGG was 1.02; that for GGGAACCGC was 1.07.
